# Among all 320,000 compounds or so, about 9,100 (2.8%) were called active. The inconclusive results got no clear call from the source; some entries with a clear call stand among them for comparison. The call rests on the fitted dose curve; in most records, active means well fitted activation curve with a large enough effect; inconclusive means small, poorly fitted or top-dose-only effect; inactive means no such curve, though single readings can be large or run the other way. No potency is given beside an inconclusive call; the fits are too rough.
# Assay: qHTS Assay for Rab9 Promoter Activators; further: nearly all actives have a fitted effect of over 60% in size; on activation, negative = inhibition: % of control where 0% means no effect
# Details: Huh7 Rab9 promoter-luciferase reporter, luminescence, 24 h; series mostly up to 9.22 µM; activation, negative = inhibition: at the top concentration
# Method in brief: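 Steps: seed 1500 Huh7 Rab9-luc cells per well, rest 2 h at 37 °C; add compound in DMSO; incubate 24 h; add luciferase reagent, 10 min ambient; read luminescence.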
# Potency means the concentration at half of the fitted maximal effect; tags describe the fitted curve by direction and shape.
SMILES,Potency,"activation, negative = inhibition"
O=C(O)c1ccc(N=NNc2cccc([N+](=O)[O-])c2)cc1,active: 0.631 µM,
NC(=O)c1cnn(-c2cc(Oc3ccccc3)ncn2)c1N,active: 2.51 µM,
Cc1ccc(S(=O)(=O)c2nc(-c3ccc(F)cc3)oc2SCC(N)=O)cc1,,inactive: -3.71%
CCOc1ccc(NC(=O)c2ccc(N)cc2)cc1,"inconclusive [activator, partial curve]",
CN(C)/C=N/c1ncc(C(=O)c2ccc3ccccc3c2)s1,"inconclusive [activator, partial curve]",
Cc1ccc(NCC(=O)c2ccc([N+](=O)[O-])cc2)cc1,"inconclusive [activator, single point]",
Cc1cccc(-c2cc3nc4c(c(N5CCOCC5)n3n2)CCCC4)c1,"inconclusive [activator, single point]",
Cc1cc(NC(=O)c2cccs2)ncc1NC(=O)C(C)C,active: 2.24 µM,
Cc1ccc2nc(SCC(=O)NCCCN3CCCC3=O)[nH]c2c1,,inactive: 0.239%
Nc1nc2ccc(Cc3ccncc3)cc2s1,"inconclusive [activator, single point]",
O=C(Oc1ccc(/C=N/NC(=O)c2ccccn2)cc1)c1cccc(Br)c1,active: 3.55 µM,
CCn1ncc(/C=C/C(=O)c2ccccc2)c1C,"inconclusive [activator, single point]",
COc1ccc(CNc2ccc(N3CCOCC3)cc2)cc1,"inconclusive [activator, single point]",
C/C(=N\Nc1cccc([N+](=O)[O-])c1)c1cc2ccccc2o1,"inconclusive [activator, single point]",
CCN1CCN(C(=O)N2CCOCC2)CC1,,inactive: 0.82%
Cc1ccc(C2=NCN(c3ccc(C(=O)O)cc3)C(=S)N2)cc1,"inconclusive [activator, partial curve]",
CC(=O)Nc1ccc(SCC(=O)c2ccc(Br)s2)cc1,"inconclusive [activator, partial curve]",
CCCCCCSc1nsc(NC(C)=O)n1,"inconclusive [activator, partial curve]",
O=C(NC1CCCCC1)c1cc2ccccc2cc1O,,inactive: 22.5%
Cc1sc(NC(=O)CS(=O)(=O)c2ccccc2)c(C#N)c1C,"inconclusive [activator, single point]",
CCOC(=O)/C(C#N)=C\c1ccc(OC)c(OC)c1,,inactive: -17.2%
COC(=O)c1ccc(CSc2nc3ccc(C)cc3[nH]2)o1,"inconclusive [activator, partial curve]",
Cc1cc(SCC(=O)c2ccc(Cl)cc2)nc(=O)[nH]1,active: 1.58 µM,
Cc1ccc(S(=O)(=O)N(C)C)cc1NC(=O)COC(=O)c1ccc2c(c1)NC(=O)CS2,,inactive: -8.64%
O=C(Nc1ccccc1C(=O)N1CCOCC1)c1ccco1,,inactive: 1.09%
O=C(CSc1nnc(-c2ccccc2Cl)o1)Nc1ccc2c(c1)OCCO2,"inconclusive [activator, single point]",
COc1ccccc1C(=O)Nc1nnc(-c2ccc3c(c2)CCCC3)o1,,inactive: -13.6%

SMILES,Potency,"activation, negative = inhibition"
COC(=O)/C=C/COc1ccccc1[N+](=O)[O-],"inconclusive [activator, single point]",
O=C(NC(=O)c1ccccc1O)c1ccc(C(F)(F)F)cc1,"inconclusive [activator, partial curve]",
COCCn1c(C)cc(/C=C2/NC(=O)N(Cc3ccc(C)cc3)C2=O)c1C,"inconclusive [activator, single point]",
COc1ccc(NC(=O)OC(C)C)cc1,active: 2.24 µM,
Cc1ccc(C(=O)Nc2ccccc2C(=O)NC(C(=O)O)C(C)C)cc1 (centres undefined),"inconclusive [activator, partial curve]",
O=C(NCCSc1ccccc1)c1ccco1,active: 3.55 µM,
CCN(CC(=O)Nc1ccc2c(c1)OCCO2)C(=O)/C=C/c1cccc(Br)c1,,inactive: 17%
O=C(COc1ccccc1)Nc1cccc(-c2cn3cccnc3n2)c1,"inconclusive [activator, partial curve]",
Nc1nc(-c2ccccc2)nc2sc3c(c12)CCCC3,active: 1.78 µM,
Cc1ccccc1Cn1ccc(-c2ccc3c(c2)OCO3)n1,,inactive: 28.8%
Cc1ccc(NC(=O)CN(C)CC(=O)Nc2ccc(N3CCOCC3)cc2)c([N+](=O)[O-])c1,,inactive: -0.185%
COc1ccc2nc(NC(=O)C3CCN(C(=O)c4ccco4)CC3)sc2c1,"inconclusive [activator, single point]",
CC1CCc2c(sc(NC(=O)c3ccccc3C(=O)O)c2C#N)C1 (centres undefined),"inconclusive [activator, single point]",
Cn1c(-c2ccc(F)cc2)cc2onc(-c3ccccc3Cl)c2c1=O,active: 0.891 µM,
Cc1ccc(SCC(=O)OCC(=O)NCc2ccco2)cc1,,inactive: -0.0353%
Cc1ccc(S(=O)(=O)Nc2cccc(-c3ccc(N4CCCCCC4)nn3)c2)cc1,"inconclusive [activator, single point]",
COc1cccc(NC(=O)c2cccc(C(=O)Nc3cccc(OC)c3)n2)c1,,inactive: -2.46%
O=[N+]([O-])c1ccccc1/C=N/NC1=NCCCCC1,"inconclusive [activator, single point]",
O=C(Nc1nccs1)c1ccc(COc2ccc(F)cc2)o1,"inconclusive [activator, single point]",
O=C1c2ccccc2NC(c2ccco2)N1/N=C/c1ccco1 (centres undefined),"inconclusive [activator, partial curve]",
c1ccc(-c2csc(Nc3cccnc3)n2)nc1,"inconclusive [activator, partial curve]",
Cc1c(C(=O)Nc2ccccc2)sc2nc3n(c(=O)c12)CCCCC3,active: 2.51 µM,
O=C(NCCC(c1ccccc1)c1ccco1)c1cccs1 (centres undefined),"inconclusive [activator, partial curve]",
CC(C)CCn1c(SCCc2ccccc2)nc2c1c(=O)[nH]c(=O)n2C,,inactive: -1.21%
O=C(N/C(=C/c1ccccc1)C(=O)N1CCCCC1)c1ccccc1,active: 2.82 µM,
Cc1ccc(C(=O)Nc2ccc(F)cc2)o1,,inactive: 25.6%
CCN(CC)CC(=O)Nc1scc2c1c(=O)oc1ccccc12,"inconclusive [activator, single point]",

SMILES,Potency,"activation, negative = inhibition"
CCOc1ncccc1C(=O)NNC(=O)c1cccc(S(=O)(=O)Nc2ccc(OC)cc2)c1,,inactive: 1.85%
CCOc1ccc(C(=O)O/N=C(\N)c2ccccn2)cc1,active: 0.501 µM,
CSC1CCCCC1(O)CSc1nc2ccccc2o1 (centres undefined),"inconclusive [activator, single point]",
COc1ccc(-c2nc3n(c(=O)c2C#N)CCS3)cc1,,inactive: 4.26%
CCC(=O)NC(=S)Nc1ccc(N2CCOCC2)cc1,"inconclusive [activator, full curve]",
Cc1ccc(NC(=O)C(=O)Nc2ccc(C)cn2)nc1,"inconclusive [activator, single point]",
COCC(C)NC(=O)c1cc(-c2cccc(OC)c2)on1 (centres undefined),active: 2.24 µM,
Cc1cc(N)nc(SCC(=O)N2C(C)CCCC2C)n1 (centres undefined),"inconclusive [activator, single point]",
Nc1ccccc1C(=O)Nc1nccs1,"inconclusive [activator, single point]",
Nc1c(Br)cc2oc(-c3ccccc3)nc2c1Br,"inconclusive [activator, single point]",
Cc1nc(-c2ccccn2)sc1C(=O)Nc1ccc(F)cc1F,active: 3.98 µM,
CCC(=O)N(Cc1ccco1)c1nc(-c2ccc(OC)cc2)cs1,"inconclusive [activator, single point]",
CC(=O)N1N=C2/C(=C/c3ccccc3)CCCC2C1c1ccccc1 (centres undefined),"inconclusive [activator, partial curve]",
OCc1cn(-c2ccccc2)nc1-c1ccc(Br)cc1,"inconclusive [activator, partial curve]",
N/C(=N\OC(=O)COc1cc(Cl)c(Cl)cc1Cl)c1ccncc1,"inconclusive [activator, partial curve]",
COc1ccc(C2=CC(c3ccc(F)cc3)n3nnnc3N2)cc1 (centres undefined),"inconclusive [activator, single point]",
COc1ccc(OCC(=O)c2c[nH]c3ccccc23)cc1,"inconclusive [activator, single point]",
O=C1c2ccccc2C(=O)N1CCOc1ccc(F)cc1,"inconclusive [activator, partial curve]",
COC(=O)c1[nH]c2ccc(Cl)cc2c1NC(=O)Oc1ccccc1,"inconclusive [activator, single point]",
Cc1cc(N)n2ncc(-c3cccc(Br)c3)c2n1,active: 2.82 µM,
Cc1ccc(N2C(=O)CC(SCC(=O)Nc3ccc(S(N)(=O)=O)cc3)C2=O)cc1 (centres undefined),"inconclusive [activator, partial curve]",
Cc1c(C(=O)Nc2ccc(F)cc2)sc2ncn(CC(=O)N3CCCCC3)c(=O)c12,,inactive: -0.364%
COc1ccc(C(=O)Nc2nnc(SCC(=O)NCc3ccco3)s2)cc1OC,,inactive: 18.1%
Cc1c(Cl)cccc1NC(=O)CSc1nnc(C)n1-c1ccccc1,,inactive: 6.92%
O=C(CN1C(=O)COc2ccc(S(=O)(=O)N3CCCCC3)cc21)NCc1ccc(Cl)cc1,,inactive: -2.63%

# Source: PubChem BioAssay AID485297 (National Center for Advancing Translational Sciences (NCATS), 2010)
